At least one peptide structure holds a part that was inferred or is arguable (an end, a ring closure or a residue). Peptide text beside a SMILES is read from it.
What was measured:
[1] = tested on: full thickness dermal wounds; assay: Healing of full thickness dermal wounds with AII fragments (Example 5); format: in vivo, Sprague Dawley rats; details: 100 μg/wound in 10% carboxymethyl cellulose plus 100 μg on days 1-4; FIGS. 13-21
[2] = tested on: angiotensin II receptor; details: reported in literature; cited from earlier work
[3] = tested on: full thickness dermal wounds; assay: Healing of full thickness dermal wounds with AII analogs (Example 1); format: in vivo, Sprague Dawley rats; details: 2×2 cm wounds; 3 μg/wound (analogs 2 and 3 also 10 μg/wound) in HYDRON vehicle; FIGS. 1-2

SMILES	wound closure relative to vehicle-treated control [1]	affinity and activity for angiotensin II receptor [2]	full thickness wound closure relative to vehicle-treated control [3]
N[C@@H](Cc1c[nH]cn1)C(=O)N1CCC[C@H]1C(=O)N[C@@H](Cc1ccccc1)C(=O)O [AII(6-8), His-Pro-Phe] (H-His-Pro-Phe-OH)	not to be effective	–	–
CC[C@H](C)[C@H](NC(=O)[C@H](Cc1ccc(O)cc1)NC(=O)[C@@H](NC(=O)[C@H](CCCNC(=N)N)NC(=O)CNC)C(C)C)C(=O)N[C@@H](Cc1c[nH]cn1)C(=O)N1CCC[C@H]1C(=O)N[C@@H](Cc1ccccc1)C(=O)O [Analog 4, Sar-Arg-Val-Tyr-Ile-His-Pro-Phe]	–	full affinity and activity	did not accelerate wound repair
